Laboratory results taken from the supplement of paper PMC4967469.
A lower IC50 marks a more sensitive line; a fit beyond the top or the lowest dose is shown as a bound at that dose. The AUC spans the tested range (256-fold, ending at the top dose) of the same fit: 1 means no effect, lower means more sensitive. For part of these data: An inferred top dose comes from the curve model; the source does not state it. For part of these data: Drugs with an entry number were screened twice under separate entries, and the two screens often disagree.

Experiments:
Assay in all cases: Viability of human cancer cell lines after 72 h of drug (GDSC screen)
JNJ-26854165 = compound: c1ccc2c(CCNc3ccc(Nc4ccncc4)cc3)c[nH]c2c1 [JNJ-26854165]; conditions: top dose 10 µM
Description: (§1)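 Human cancer cell lines in 384-well plates, medium with 10% serum, drug for 72 h over a 256-fold dose range (nine 2-fold or five 4-fold steps up to the top dose). Adherent lines were fixed and stained with the nucleic acid dye Syto60, suspension lines read with resazurin; signal relative to control wells, capped at 0 and 100%. One two-parameter sigmoid per drug and line, fitted in a mixed model over all curves with the slope shared within a line.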

OSI-906 = compound: C[C@]1(O)C[C@@H](c2nc(-c3ccc4ccc(-c5ccccc5)nc4c3)c3c(N)nccn32)C1 [OSI-906]; conditions: top dose 2.56 µM; top dose inferred
Description: as §1

FTI-277 = compound: COC(=O)[C@H](CCSC)NC(=O)c1ccc(NC[C@@H](N)CS)cc1-c1ccccc1 [FTI-277]; conditions: top dose 1.024 µM; top dose inferred
Description: as §1

NSC-207895 = compound: CN1CCN(c2ccc([N+](=O)[O-])c3no[n+]([O-])c23)CC1 [NSC-207895]; conditions: top dose 20 µM; top dose inferred
Description: as §1

YM155 = compound: COCC[n+]1c2c(n(Cc3cnccn3)c1C)C(=O)c1ccccc1C2=O [YM155]; conditions: top dose 5.12 µM
Description: as §1

Belinostat = compound: O=C(/C=C/c1cccc(S(=O)(=O)Nc2ccccc2)c1)NO [Belinostat]; conditions: top dose 20 µM; top dose inferred
Description: as §1

SB-715992 = compound: Cc1ccc(C(=O)N(CCCN)[C@@H](c2nc3cc(Cl)ccc3c(=O)n2Cc2ccccc2)C(C)C)cc1 [SB-715992]; conditions: top dose 0.128 µM; top dose inferred
Description: as §1

JQ1 = compound: Cc1sc2c(c1C)C(c1ccc(Cl)cc1)=N[C@@H](CC(=O)OC(C)(C)C)c1nnc(C)n1-2 [JQ1]
Description: as §1

GSK1070916 = compound: CCn1cc(-c2ccnc3[nH]c(-c4cccc(CN(C)C)c4)cc23)c(-c2ccc(NC(=O)N(C)C)cc2)n1 [GSK1070916]; conditions: top dose inferred
Description: as §1

[1] = top dose 1 µM, screen: GDSC drug entry 1218, top dose inferred
[2] = top dose 2.56 µM, screen: GDSC drug entry 163

NCI-H1299 (large cell lung carcinoma, adherent)
AUC (JNJ-26854165): 0.876
IC50 (JNJ-26854165): > 10 µM
AUC (OSI-906): 0.883
IC50 (OSI-906): > 2.56 µM
AUC (FTI-277): 0.965
IC50 (FTI-277): > 1.02 µM
AUC (NSC-207895): 0.978
IC50 (NSC-207895): > 20 µM
AUC (YM155): 0.2
IC50 (YM155): 0.0325 µM

SW1088 (glioma, adherent)
AUC (Belinostat): 0.78
IC50 (Belinostat): 10.9 µM
AUC (SB-715992): 0.956
IC50 (SB-715992): > 0.128 µM
AUC (JQ1; [1]): 0.95
IC50 (JQ1; [1]): > 1 µM
AUC (JQ1; [2]): 0.972
IC50 (JQ1; [2]): > 2.56 µM
AUC (JNJ-26854165): 0.708
IC50 (JNJ-26854165): 2.91 µM
AUC (OSI-906): 0.937
IC50 (OSI-906): > 2.56 µM
AUC (NSC-207895): 0.979
IC50 (NSC-207895): > 20 µM
AUC (YM155): 0.599
IC50 (YM155): 0.65 µM

SW1116 (large intestine, adherent)
AUC (Belinostat): 0.551
IC50 (Belinostat): 1.81 µM
AUC (SB-715992): 0.985
IC50 (SB-715992): > 0.128 µM
AUC (JQ1; [1]): 0.984
IC50 (JQ1; [1]): > 1 µM
AUC (JNJ-26854165): 0.979
IC50 (JNJ-26854165): > 10 µM
AUC (NSC-207895): 0.931
IC50 (NSC-207895): > 20 µM
AUC (YM155): 0.978
IC50 (YM155): > 5.12 µM

769-P (kidney, adherent)
AUC (Belinostat): 0.35
IC50 (Belinostat): 0.461 µM
AUC (SB-715992): 0.596
IC50 (SB-715992): 0.015 µM
AUC (JQ1; [1]): 0.972
IC50 (JQ1; [1]): > 1 µM
AUC (JQ1; [2]): 0.594
IC50 (JQ1; [2]): 0.297 µM
AUC (OSI-906): 0.954
IC50 (OSI-906): > 2.56 µM
AUC (FTI-277): 0.976
IC50 (FTI-277): > 1.02 µM
AUC (NSC-207895): 0.858
IC50 (NSC-207895): 18.8 µM
AUC (YM155): 0.031
IC50 (YM155): < 0.02 µM

NCI-H2228 (lung adenocarcinoma, adherent)
AUC (Belinostat): 0.723
IC50 (Belinostat): 7.57 µM
AUC (SB-715992): 0.932
IC50 (SB-715992): > 0.128 µM
AUC (JQ1; [1]): 0.97
IC50 (JQ1; [1]): > 1 µM
AUC (JQ1; [2]): 0.832
IC50 (JQ1; [2]): > 2.56 µM
AUC (OSI-906): 0.844
IC50 (OSI-906): > 2.56 µM
AUC (FTI-277): 0.945
IC50 (FTI-277): > 1.02 µM
AUC (NSC-207895): 0.971
IC50 (NSC-207895): > 20 µM
AUC (YM155): 0.29
IC50 (YM155): 0.0597 µM

OVMIU (ovary, adherent, top dose 2.56 µM)
AUC (GSK1070916): 0.931
IC50 (GSK1070916): > 2.56 µM
